# Test results: PubChem BioAssay AID1347417 (National Center for Advancing Translational Sciences (NCATS), 2020)
# About 5,300 (4.4%) of roughly 120,000 compounds were called active. This list was built around the results that the source calls inconclusive (neither active nor inactive); the mix of calls is not that of the screen. Calls follow the shape of the dose curve; as a rule, active = well fitted inhibition curve with a large enough effect; inconclusive = small, poorly fitted or top-dose-only effect; inactive = no such curve, though single readings can be large or run the other way. Where the call is inconclusive, the potency comes from a doubtful curve fit.
# Experiment: qHTS Primary assay for Inhibitors of Plasmodium falciparum Dd2 growth in vitro; also: nearly all actives have a fitted effect of over 65% in size;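 as to activity, negative = inhibition: plate controls were DMSO vehicle for no effect and reference drug for full effect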
# Details: P. falciparum Dd2 growth, SYBR Green, 72 h; activity, negative = inhibition: at 28.9 µM (top of the series) unless noted; series mostly up to 28.9 µM
# Outline: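 Readout: SYBR Green fluorescence, 485 nm excitation, 535 nm emission, after ~16 h lysis at 37C. Before that, Dd2-infected red cells (2.5% hematocrit) grew 72 h with compound, 29 uM top final concentration.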
# Potency is read from the fitted curve at half-maximal effect; tags tell the direction and shape of the fitted curve.
SMILES,Potency,outcome,"activity, negative = inhibition"
Cn1c2ccccc2c2cnn(CC(=O)NCCCN3CCCCC3)c(=O)c21,"inconclusive: 20 µM [inhibitor, partial curve, poor fit]",–,–
Cc1ccc(-n2ncc(C(=O)N3CCN(c4cc(Cl)ccc4C)CC3)c2C2CCN(C(=O)OC(C)(C)C)CC2)cc1,"inconclusive: 0.708 µM [inhibitor, partial curve]",–,–
CN(C)c1cccc(C(=O)N2CCC(OCCOc3ccc(F)cc3)CC2)c1,"inconclusive: 20 µM [inhibitor, single point]",–,–
Cc1ccc(S(=O)(=O)N2CCCN(C(=O)C3CC3)c3ccccc32)cc1F,–,inactive,–
CC(C)c1nccn1CCCNc1nc(-c2ccncc2)nc2c1cnn2C,active: 12.6 µM,–,–
Cc1ccc(C)c(Cn2c3ccccc3c3cnn(CC(=O)NC(C)CCc4ccccc4)c(=O)c32)c1 (stereo not given),"inconclusive: 10 µM [inhibitor, single point]",–,–
COc1cc(F)ccc1-c1cc2c(nc1-c1ccccc1)nc(C(=O)NCCN(C)C)n2C,active: 2.51 µM,–,–
Cc1ccc(NC(=O)CC2=C3CCCCC3NC2=O)cc1 (stereo not given),–,–,inactive: 0.61%
O=C(NCc1sc2ccccc2c1Cl)[C@H]1CCC[C@H](O)C1,"inconclusive: 6.31 µM [inhibitor, partial curve]",–,–
CC(C)Oc1ccc(CNC(=O)c2ccc(Cn3ccn4nc5c(c4c3=O)CCCC5)cc2)cc1,"inconclusive: 17.8 µM [inhibitor, single point]",–,–
CCOC(=O)c1cccc(NC(=O)N2CC[C@@H](CC(=O)NCc3ccccc3OC)[C@@H](CC)C2)c1,"inconclusive: 0.501 µM [inhibitor, full curve, poor fit]",–,–
Cc1ccc(Cn2c(C3CCN(C(=O)c4ccc(C(F)(F)F)cc4)CC3)n[nH]c2=O)cc1,"inconclusive: 1.26 µM [inhibitor, full curve, poor fit]",–,–
COc1ccccc1C(=O)Nc1ccc2nc(SCC(=O)N(C)c3ccccc3)sc2c1,active: 8.91 µM,–,–
CCS(=O)(=O)c1ncc(N(Cc2ccccc2)Cc2ccco2)c(C(=O)Nc2cccc(Cl)c2C)n1,"inconclusive: 7.94 µM [inhibitor, partial curve]",–,–
CCN(CC)S(=O)(=O)c1ccc(NC(=O)CN(c2ccccc2)S(=O)(=O)N(C)C)cc1,–,–,inactive: -25.5%
O=C(CN1C(=O)C2(SCC(=O)N2c2cccc(Cl)c2)c2ccccc21)NCCc1ccccc1 (stereo not given),"inconclusive: 11.2 µM [inhibitor, single point]",–,–
CCOc1ccccc1CN1CCn2c(nnc2[C@@H]2C[C@@H](O)CN2Cc2cccnc2)C1,–,inactive,–
CN(C)[C@@H]1CN(C(=O)C2CC2)CC[C@@H]1CO,–,–,inactive: -10.1%
CCc1cccc(C)c1NC(=O)c1cc(S(=O)(=O)N(Cc2ccc(C(=O)OC)cc2)Cc2ccc(OC)c(OC)c2)ccc1F,"inconclusive: 12.6 µM [inhibitor, single point]",–,–
CC1CCN(C(=O)[C@@H](C)C2CC[C@@]3(C)CC[C@H](NC(=O)Cc4ccccc4)[C@@H](C)[C@@H]3[C@H]2O)CC1 (stereo not given in full),"inconclusive: 12.6 µM [inhibitor, single point]",–,–
COc1ccc(NC(=O)CN2C(=O)CC(c3ccc(C)c(C)c3)=Nc3ccccc32)cc1OC,"inconclusive: 12.6 µM [inhibitor, single point]",–,–
CCC(CC)C(=O)Nc1ccc2nc(SCC(=O)N3CCCC3)sc2c1,"inconclusive: 8.91 µM [inhibitor, single point]",–,–

SMILES,Potency,outcome,"activity, negative = inhibition"
Cc1cc(C(=O)Nc2ccc(C(O)[C@H]3COCC(=O)N3Cc3ccc(C(F)(F)F)cc3)cc2)n(C)n1 (stereo not given in full),"inconclusive: 11.2 µM [inhibitor, partial curve, poor fit]",–,–
O=C1CCN(C2CCN(Cc3ccccc3)CC2)CCCC(C(=O)NCc2ccccc2)CCN1 (stereo not given),"inconclusive: 12.6 µM [inhibitor, partial curve, poor fit]",–,–
CCOc1ccc(NC(=O)CCC2CCN(c3cc(NC4CC4)ncn3)CC2)cc1,"inconclusive: 0.708 µM [inhibitor, partial curve]",–,–
COc1cccc(-c2cnc([C@@H]3COCCN3Cc3ccc(S(C)(=O)=O)cc3)[nH]2)c1,"inconclusive: 31.6 µM [inhibitor, single point]",–,–
NC(=O)CCn1cc(CN(CCO)Cc2ccccc2F)c2ccccc21,active: 2.24 µM,–,–
CC1=C[C@@H](CNC(=O)c2cnccn2)[C@H](C(C)C)C[C@H]1CC(=O)NCCN1CCOCC1,"inconclusive: 5.01 µM [inhibitor, partial curve, poor fit]",–,–
O=C(NC(C(=O)N1CCCCC1)C1CCN(C(=O)c2ccccc2F)CC1)c1ccccc1 (stereo not given),"inconclusive: 7.94 µM [inhibitor, partial curve]",–,–
Cn1cccc1CN1CCC2(CC1)CC(c1cccnc1)=NO2,"inconclusive: 2.51 µM [inhibitor, partial curve, poor fit]",–,–
CCc1cccc(NC(=O)CCc2nc3cccnc3n2Cc2ccc(OC)cc2)c1,"inconclusive: 8.91 µM [inhibitor, partial curve, poor fit]",–,–
N#Cc1ccccc1Nc1ccnc(N2CC3CCC(C2)N3CC(F)(F)F)n1,"inconclusive: 14.1 µM [inhibitor, partial curve, poor fit]",–,–
Cc1ccccc1OCC(=O)Nc1ccc(-c2nc3ccccc3o2)cc1,–,inactive,–
Cn1nc(-c2ccc(F)cc2)cc1[C@H]1CN2CC[C@H]1C[C@@H]2CNC(=O)c1cccs1,active: 12.6 µM,–,–
CC[C@H]1CN(C(=O)Nc2ccccc2)CC[C@H]1CC(=O)NCc1ccco1,"inconclusive: 5.62 µM [inhibitor, partial curve, poor fit]",–,–
O=C1[C@@H]2C[C@@H](CN2C2CCC2)Oc2ccccc2N1Cc1ccc(OC(F)(F)F)cc1,active: 6.31 µM,–,–
CC(C)c1nc2c(c(-c3ccc(Cl)cc3)n1)CCN(Cc1ccc(N(C)C)cc1)CC2,"inconclusive: 11.2 µM [inhibitor, single point]",–,–
Cc1c(C(=O)NCc2ccc(F)cc2)oc2ccc(S(=O)(=O)N3CCCCC3)cc12,"inconclusive: 11.2 µM [inhibitor, single point]",–,–
O=C1CCCCC(C(=O)NCC2CCCCC2)N1 (stereo not given),–,–,inactive: 13.3%
Cc1csc(NC(=O)c2nc(C(O)c3cccc(O)c3)oc2C)n1 (stereo not given),"inconclusive: 31.6 µM [inhibitor, single point]",–,–
Cc1ccc2nc(-c3cccs3)c(Nc3c(C)cccc3C)n2c1,"inconclusive: 20 µM [inhibitor, single point]",–,–
Cn1c(Cn2cccn2)nnc1C1CCN(C(=O)N2CCOCC2)CC1,–,–,inactive: 2.78%
CCc1cccc(NC(=O)c2cc3c(=O)n(Cc4ccccc4)ccc3nc2C)c1,–,–,inactive: -1.78%
CC(=O)N1CCN(c2nc3c(s2)CC(C(=O)NCc2ccccc2C)CC3)CC1 (stereo not given),–,inactive,–

SMILES,Potency,outcome,"activity, negative = inhibition"
O=C(c1ccn[nH]1)N1CCC(Oc2ncccc2C(=O)N2CCCCC2)C1 (stereo not given),–,–,inactive: 4.89%
Cc1cc(C)cc(NC(=O)N2[C@@H]3CC[C@H]2CC(NC(=O)c2ccc(F)cc2)C3)c1 (stereo not given in full),–,–,inactive: -23.6%
CC(=O)N(C1CC1)C1CCOC2(CCN(C(=O)c3nn(C)c4ccccc34)CC2)C1 (stereo not given),–,inactive,–
CCN1c2cc(C(=O)Nc3cccc(C(F)(F)F)c3)ccc2C(=O)N2CCCC21 (stereo not given),–,–,inactive: 158%
Cc1cccc(-c2ccccc2CN)c1,active: 10 µM,–,–
COc1ccc(Cl)cc1NC(=O)Cn1c(-c2ccc(F)cc2)nc(C)c(CCO)c1=O,active: 14.1 µM,–,–
Cc1cccnc1CN(C)C(=O)c1ccc2nc(-c3ccccc3)cn2c1,"inconclusive: 17.8 µM [inhibitor, single point]",–,–
CC(=O)c1cccc(NC(=O)C2CCN(S(=O)(=O)c3ccc4c(c3)CCCN4C(C)=O)CC2)c1,"inconclusive: 10 µM [inhibitor, partial curve, poor fit]",–,–
CC(=O)N1C[C@@H]2CCCN3CCC[C@@H]([C@H]23)[C@H]1CCCC(=O)N(C)C,–,–,inactive: 4.87%
CCCCCOc1ccc(/C=C/C(=O)Nc2sc(C)c(C)c2C(=O)OCC)cc1OC,"inconclusive: 12.6 µM [inhibitor, single point]",–,–
CC(=O)N1CCN(C(=O)C[C@@H]2c3nc(NC(=O)c4cccs4)sc3C[C@@H]3[C@](C)(CO)[C@H](O)CC[C@]32C)CC1,"inconclusive: 3.98 µM [inhibitor, single point]",–,–
CN(C)CCCOCC1(C)COc2ccc(C(=O)Nc3cccc(Cl)c3)cc2N1 (stereo not given),"inconclusive: 11.2 µM [inhibitor, partial curve, poor fit]",–,–
O=C(Nc1ccc2c(N3CCCC3)ncnc2c1)c1ccccc1Br,active: 12.6 µM,–,–
CC1(C(=O)N2C[C@@H](Oc3ccccc3)C[C@H]2C(=O)NC2CC2)CCCCC1,"inconclusive: 11.2 µM [inhibitor, single point]",–,–
Cc1cccc2nc(CNC(=O)c3cccc(C4CCNC4)c3)cn12 (stereo not given),–,–,inactive: -8.58%
CNc1ncc(CN(C)c2cc(C3CC(N)C3)nc(COC)n2)cn1 (stereo not given),–,–,inactive: -20.1%
Oc1ccccc1CN1CCNc2cnc(Oc3ccccc3)cc2C1,"inconclusive: 31.6 µM [inhibitor, single point]",–,–
CCN1c2cc(C(=O)NC3CCN(Cc4ccccc4)CC3)ccc2C(=O)N2CCCCC21 (stereo not given),active: 7.94 µM,–,–
CCOCCCNC(=O)c1ccc(-n2c(-c3ccccc3)cc3c2CCCC3)cc1,"inconclusive: 10 µM [inhibitor, single point]",–,–
CCC1(N2CCN(S(=O)(=O)c3ccc(Cl)cc3C)CC2)CCN(C(=O)C(C)C)C1 (stereo not given),"inconclusive: 11.2 µM [inhibitor, single point]",–,–
CCSc1ncc(Cl)c(C(=O)N2CCN(c3ccccc3OC)CC2)n1,–,–,inactive: 34.4%
